Reference: PubChem BioAssay AID588855 (National Center for Advancing Translational Sciences (NCATS), 2011)
About 5,000 (1.2%) of roughly 410,000 compounds were called active. Inconclusive results, whose numbers are uncertain, are shown with a selection of clear calls. The call rests on the fitted dose curve; in most records, active means well fitted inhibition curve with a large enough effect; inconclusive means small, poorly fitted or top-dose-only effect; inactive means no such curve, though single readings can be large or run the other way. Potencies of inconclusive entries are doubtful fits and often do not repeat.

Experiment: qHTS for Inhibitors of TGF-b; further: nearly all actives have a fitted effect of over 65% in size
Conditions: HepG2 CAGA-GFP TGF-b/SMAD3 reporter, GFP fluorescence, 18 h, TGF-beta stimulated, 500 pg/mL final; series mostly up to 46.1 µM; activity, negative = inhibition: at the top concentration
In short: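 Using HEPG2 CAGA-GFP reporter cells at 1000 cells/well, we pinned test compounds, stimulated with recombinant TGF-beta (500 pg/mL final) and measured total well GFP after 18 h.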
On the % scale 0 is the no-effect control and ±100 the full control effect; potency means the concentration at half of the fitted maximal effect; tags describe the fitted curve by direction and shape.

Row | SMILES | Potency | activity, negative = inhibition
1 | CC(=NCCN1CCOCC1)c1c(O)n(C2CCCCC2)c(=O)[nH]c1=O | inconclusive: 6.31 µM [inhibitor, partial curve, poor fit] | 
2 | CC(=O)N1N=C(c2c(O)n(C)c(=O)n(C)c2=O)CC1c1ccccc1 (centres undefined) |  | inactive: -0.643%
3 | Cc1ccccc1CCNCc1ccc(Br)cc1 | inconclusive: 35.5 µM [inhibitor, single point] | 
4 | O=C(Nc1cc[c]([Sb](=[O])([OH])[OH])cc1)c1ccccc1 | inconclusive: 28.2 µM [inhibitor, single point] | 
5 | CN(C)C(=O)Oc1ccc2nnc3ccnn3c2c1 | inconclusive: 6.31 µM [inhibitor, single point] | 
6 | O=C1NCN(c2ccccc2)C12CCN(C(c1ccccc1OC(F)(F)F)c1nnnn1C1CCCCC1)CC2 (centres undefined) | inconclusive: 11.2 µM [inhibitor, partial curve, poor fit] | 
7 | O=C(COc1ccc2ccccc2c1)N1CCN(Cc2c[nH]c3ccccc23)CC1 | inconclusive: 12.6 µM [inhibitor, single point] | 
8 | COc1ccc(C2=C(C(C)=O)Sc3nnc(-c4ccc(C)cc4)n3N2C(C)=O)cc1OC | inconclusive: 4.47 µM [inhibitor, single point] | 
9 | COC(=O)C1=C(c2ccc(F)cc2OCc2ccccc2)C[C@@H]2CC[C@H]1N2C(=O)NCc1ccccc1C(F)(F)F | inconclusive: 3.55 µM [inhibitor, single point] | 
10 | COc1ccccc1NC(=O)N1CCN(c2nnc(C)c3c(C)n(-c4ccc(Cl)cc4)nc23)CC1 | inconclusive: 3.16 µM [inhibitor, partial curve] | 
11 | CSCCC(c1nnnn1-c1ccc2c(c1)OCCO2)N1CCC(n2c(=O)[nH]c3ccccc32)CC1 (centres undefined) | inconclusive: 31.6 µM [inhibitor, single point] | 
12 | COc1cc2c3cc1Oc1cc(ccc1O)C[C@@H]1c4c(cc(OC)c(O)c4Oc4cccc(c4)C[C@@H]3N(C)CC2)CC[N+]1(C)C |  | inactive: -0.122%
13 | CC12CC[C@H]3[C@@H](CCC4(O)C[C@H](O)CCC34/C=N/NC(=O)Cc3ccccc3)C1(O)CCC2C1=CC(=O)OC1 (some centres undefined) |  | inactive: -23.4%
14 | Cc1cccc(C)c1-n1nnnc1C(c1cccs1)N1CCC(n2c(=O)[nH]c3ccccc32)CC1 (centres undefined) | inconclusive: 25.1 µM [inhibitor, single point] | 
15 | O=C1CC(N2CC=C(c3ccccc3)CC2)C(=O)N1c1ccc(F)cc1 (centres undefined) |  | inactive: -8.34%
16 | CC12CN3CC(C)(CN(C1)C31CCOCC1)C2=O | inconclusive: 35.5 µM [inhibitor, partial curve, poor fit] | 
17 | O=C(Cn1nc(-c2ccccc2)ccc1=O)N1CCC2(CC1)OCCO2 |  | inactive: 6.87%
18 | O=C1NC(=O)C(Cc2ccccc2)(Cc2ccccc2)C(=O)N1 | inconclusive: 28.2 µM [inhibitor, single point] | 
19 | Cc1c2cnn(CC(=O)N3CCC4(CC3)OCCO4)c(=O)c2c(C)n1Cc1ccccc1 |  | inactive: -15%
20 | CCOc1cc2c(cc1OCC)-n1cccc1C(c1ccc(OC)c(OC)c1)NC2 (centres undefined) | inconclusive: 31.6 µM [inhibitor, single point] | 
21 | C[C@@H]1CN([C@H](C)CO)C(=O)c2cc(NC(=O)Nc3ccc(C(F)(F)F)cc3)ccc2O[C@H]1CN(C)S(=O)(=O)c1cccs1 | inconclusive: 14.1 µM [inhibitor, single point] | 
22 | CC(OC(=O)c1cn(C)c2ccccc12)C(=O)N1CCCC1 (centres undefined) | inconclusive: 1.26 µM [inhibitor, full curve] | 

Row | SMILES | Potency | activity, negative = inhibition
23 | CCC(c1nnnn1Cc1ccccc1)N1CCC2(CC1)C(=O)NCN2c1ccccc1 (centres undefined) | inconclusive: 35.5 µM [inhibitor, partial curve, poor fit] | 
24 | COc1cccc2c1C(=O)c1c(O)c3c(c(O)c1C2=O)CC(O)(C(C)=NO)CC3OC1CC(N)C(O)C(C)O1 (centres undefined) | active: 6.31 µM | 
25 | O=C(NCP(=O)(Oc1ccccc1)Oc1ccccc1)OCc1ccccc1 |  | inactive: -26.3%
26 | Clc1ccc2c(c1)C(OC1CN3CCC1CC3)c1ccccc1CS2 (centres undefined) | inconclusive: 35.5 µM [inhibitor, partial curve, poor fit] | 
27 | CN1C(=O)C(Cc2nc3ccccc3c(=O)n2-c2ccccc2)c2ccccc21 (centres undefined) | inconclusive: 31.6 µM [inhibitor, single point] | 
28 | Cn1cccc1/C=C1/C(=O)NC(=O)N(Cc2ccccc2)C1=O | inconclusive: 35.5 µM [inhibitor, single point] | 
29 | COc1cc(C2c3cc4c(cc3CC3COC(=O)C32)OCO4)cc(OC)c1OC (centres undefined) | inconclusive: 15.8 µM [inhibitor, single point] | 
30 | COc1ccc2nc(/N=C/c3c(O)n(-c4cccc(Cl)c4)c(=O)[nH]c3=O)sc2c1 | inconclusive: 35.5 µM [inhibitor, single point] | 
31 | O=C(c1ccc(Cl)cc1)C1CCCN(Cc2ccc3ncccc3c2)C1 (centres undefined) | inconclusive: 0.708 µM [inhibitor, full curve, poor fit] | 
32 | CCNC(=O)NNC(=O)C1CC(c2cccnc2)=NO1 (centres undefined) |  | inactive: -22.7%
33 | CCOc1ccc(-c2cc(C)[n+](CCN3CCOCC3)c(-c3ccc(OCC)cc3)c2)cc1 |  | inactive: 3.35%
34 | OC(CNC1CCCCC1)C(F)(F)F (centres undefined) |  | inactive: 7.33%
35 | COC(=O)C1=C(c2ccc(-c3ccccc3)c(F)c2)C[C@@H]2CC[C@H]1N2C(=O)N1CCCC1 | inconclusive: 2.82 µM [inhibitor, partial curve, poor fit] | 
36 | O=C(NC(Oc1ccccc1)C(Cl)(Cl)Cl)c1ccccc1 (centres undefined) | inconclusive: 35.5 µM [inhibitor, single point] | 
37 | COc1ccc(C(c2nnnn2C2CCCC2)N2CCC3(CC2)C(=O)NCN3c2ccccc2)cc1 (centres undefined) | inconclusive: 35.5 µM [inhibitor, single point] | 
38 | OC(c1cccc(Cl)c1)(c1cccc(Cl)c1)C1CN2CCC1CC2 (centres undefined) | inconclusive: 35.5 µM [inhibitor, single point] | 
39 | O=c1c2ccccc2nc(/C=C/c2ccccc2O)n1-c1ccc(Br)cc1 |  | inactive: -28.8%
40 | COc1cc(/C=C(/C)[N+](=O)[O-])ccc1OCc1ccccc1Cl | active: 5.01 µM | 
41 | COc1ccc2[nH]cc(CCN=C(NC(=O)c3ccccc3OC)Nc3nc(C)cc(C)n3)c2c1 | inconclusive: 35.5 µM [inhibitor, single point] | 
42 | CC(=O)O[C@H]1CC[C@]2(C=O)C3CC[C@]4(C)[C@@H](C5=CC(=O)OC5)CC[C@]4(O)C3CC[C@]2(O)C1 (some centres undefined) | active: 11.2 µM | 
43 | COc1cc(CN=C(C)c2c(O)n(C3CCCCC3)c(=O)[nH]c2=O)cc(OC)c1 | inconclusive: 12.6 µM [inhibitor, single point] | 
44 | COC[C@H]1OC(=O)c2coc3c2[C@@]1(C)C1=C(C3=O)[C@@H]2CCC(=O)[C@@]2(C)C[C@H]1OC(C)=O | inconclusive: 10 µM [inhibitor, partial curve, poor fit] | 

Row | SMILES | Potency | activity, negative = inhibition
45 | CNCCc1ccc(O)c(O)c1 | inconclusive: 17.8 µM [inhibitor, single point] | 
46 | Cc1ccc(C)c(S(=O)(=O)c2nnn3c2nc(N2CCN(C)CC2)c2sccc23)c1 | inconclusive: 5.62 µM [inhibitor, full curve, poor fit] | 
47 | O=c1[nH]c2ccccc2n1C1CCN(C(c2nnnn2C2CCCCC2)C2CC2)CC1 (centres undefined) | inconclusive: 0.501 µM [inhibitor, full curve, poor fit] | 
48 | Cc1ccccc1CN1CCCN(Cc2ccc(Cl)cc2)S1(=O)=O |  | inactive: -3.52%
49 | Cc1ccc(-n2nc(C)c3c2NC(=O)CSC3c2ccc(O)cc2)cc1Cl (centres undefined) |  | inactive: -26%
50 | CC1OC(OC2CC(O)C3(CO)C4C(O)CC5(C)C(C6=CC(=O)OC6)CCC5(O)C4CCC3(O)C2)C(O)C(O)C1O (centres undefined) | active: 1.12 µM | 
51 | COc1ccc(OC)c(CC(=O)O)c1 |  | inactive: -3.15%
52 | C[C@H]1CNC(=O)c2c(C(=O)Nc3cccc(Cl)c3)ncn21 |  | inactive: -7.92%
53 | O=C(COc1ccc(Cl)cc1Cl)N1CCN(C/C=C/c2ccccc2)CC1 | inconclusive: 35.5 µM [inhibitor, single point] | 
54 | Cc1ccc(-c2csc(NC(CO)c3nc4ccccc4n3CCOCCO)n2)cc1 (centres undefined) | inconclusive: 35.5 µM [inhibitor, single point] | 
55 | Cc1ccc(S(=O)(=O)N2CCCCC2)cc1NC(=O)Nc1ccc(Cl)cc1Cl | inconclusive: 7.08 µM [inhibitor, full curve, poor fit] | 
56 | NCC(=O)c1ccc(Cl)c(Cl)c1 | inconclusive: 11.2 µM [inhibitor, partial curve, poor fit] | 
57 | Cc1noc(C)c1CSCC(=O)Nc1ccc(C#N)c(Cl)c1 |  | inactive: 1.47%
58 | CCCC1(CCC)C(=O)NC(=NCc2ccccc2)NC1=O | inconclusive: 14.1 µM [inhibitor, single point] | 
59 | CN1c2ccc([N+](=O)[O-])cc2CC2(C(=O)NC(=O)N(c3ccc(Br)cc3)C2=O)C1c1ccccc1 (centres undefined) |  | inactive: -29.8%
60 | CC[C@H]1CC2CN3CCc4c([nH]c5cc(OC)ccc45)[C@](C(=O)OC)(C2)[C@H]13 | inconclusive: 17.8 µM [inhibitor, single point] | 
61 | O=C(c1ccc2c3c(cccc13)CC2)C1CCCN(Cc2ncc[nH]2)C1 (centres undefined) | inconclusive: 1.41 µM [inhibitor, partial curve, poor fit] | 
62 | Fc1ccc(NC2=NCCS2)cc1Cl | inconclusive: 20 µM [inhibitor, partial curve, poor fit] | 
63 | Cc1ccc(N2CCN(C(=O)c3cn(CC4CCCCC4)nn3)C(C)C2)cc1 (centres undefined) | inconclusive: 15.8 µM [inhibitor, single point] | 
64 | CCN(c1ccc(C)cc1C)S(=O)(=O)c1nnc(NC(=O)c2ccco2)s1 | inconclusive: 14.1 µM [inhibitor, partial curve, poor fit] | 
